Among the data in PubChem BioAssay AID485344 (National Center for Advancing Translational Sciences (NCATS), 2010) are inhibition values, retold here.

The campaign covered roughly 340,000 compounds. About 6,900 (2%) were called active. Cut-off read from the data, not from the text of the source: active = inhibition above about 30%; inactive = below that, where a call was filed. This is a selection; strong and weak results do not stand in their true shares. The source gives no active or inactive call for entries shown without one.

UniProt P14416, sequence (P14416 whole entry, looked up): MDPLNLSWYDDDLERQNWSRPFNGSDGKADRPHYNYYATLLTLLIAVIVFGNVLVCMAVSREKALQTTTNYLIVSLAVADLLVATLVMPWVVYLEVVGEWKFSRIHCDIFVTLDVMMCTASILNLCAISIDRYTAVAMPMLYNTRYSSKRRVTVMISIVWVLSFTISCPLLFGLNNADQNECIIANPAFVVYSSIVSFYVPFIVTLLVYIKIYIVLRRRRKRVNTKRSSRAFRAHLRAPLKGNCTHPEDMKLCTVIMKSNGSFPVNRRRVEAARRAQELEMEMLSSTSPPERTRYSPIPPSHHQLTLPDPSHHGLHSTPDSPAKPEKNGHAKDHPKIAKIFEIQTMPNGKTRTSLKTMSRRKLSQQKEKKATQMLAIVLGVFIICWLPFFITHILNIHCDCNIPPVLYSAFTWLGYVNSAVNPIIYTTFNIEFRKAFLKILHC

The test concerns the target D(2) dopamine receptor (Homo sapiens) (UniProt P14416). The test can be described thus: HTS Assay for Allosteric Antagonists of the Human D2 Dopamine Receptor: Primary Screen for Antagonists. Note: 0% is about no effect. Conditions: HEK293 TREx D2 cells, calcium flux, dopamine EC80; at 10 µM; stronger effect = higher value. In outline:
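Antagonism is scored as inhibition of an EC80 dopamine-evoked calcium signal in a force-coupled, tetracycline-inducible HEK293 T-REx D2 line, with compound present 180 s before agonist.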
In the case of `O=C(NCCc1ccc(F)cc1)C(=O)NCC(c1cccs1)S(=O)(=O)c1ccc(F)cc1` (stereo not given), the inhibition worked out at 12.6%.

Turning to `Cc1ccc2sc(N3CCN(C(=O)CCS(=O)(=O)c4ccc(Cl)cc4)CC3)nc2c1C`, the inhibition is -15.1%.

In the case of `Cc1ccc(-c2cn3nc(N4CCCC(C(=O)Nc5ccc(F)cc5)C4)sc3n2)cc1` (stereo not given), the inhibition is -2.73%.

Consider `CCCN(CCC)C(=O)Cn1c(=O)n(-c2cccc(OC)c2)c(=O)c2c(C)c(C(=O)N(C)C)sc21`, for which the inhibition amounted to 13.2%.

For the compound `CCC(Sc1nc2ncccc2[nH]1)C(=O)Nc1cccc(OC)c1` (stereo not given), the inhibition is -11.2%.

On to `Cc1ccc(N(CC(=O)N2CCN(c3ccc(Cl)cc3)CC2)S(=O)(=O)c2c(C)nn(C)c2C)cc1`, for which the inhibition was 21.2%.

With `NC(=O)C1CCN(S(=O)(=O)c2cccc(S(=O)(=O)N3CCCCC3)c2)CC1`, the inhibition was active: 70.4%.

With `CCOc1ccc(C(c2c(O)cc(C)n(CCOC)c2=O)N2CCN(c3ccccc3)CC2)cc1` (stereo not given), the inhibition was -6.24%.

Regarding `CCC1CCCCN1CCCNC(=O)c1[nH]c2ccccc2c1Sc1ccc(Cl)cc1` (stereo not given), the inhibition is 16.4%.

Regarding `COc1cccc(CNC(=O)C(CC(C)C)NS(=O)(=O)c2ccc3c(c2)oc(=O)n3C)c1` (stereo not given), the inhibition is -18.6%.

`Cc1c2cnn(CC(=O)N3CCCCC3)c(=O)c2c(C)n1Cc1ccc(F)cc1`: the inhibition is -11.5%.

For `Cc1ccc(Cl)cc1NS(=O)(=O)c1ccc2oc(=O)c3ncn(C)c3c2c1`, the inhibition was determined as 3.95%.

With `COc1ccc(-c2noc(N3CCC(C(=O)Nc4ccc(F)cc4Cl)CC3)n2)cc1`, the inhibition stood at 4.62%.

Turning to `CCN(C(=O)CCS(=O)(=O)c1cc2[nH]c(=O)c(=O)[nH]c2cc1C)c1ccccc1`, the inhibition is -12.6%.

Turning to `Cc1ccc2c(c1)C(=O)OC(C(=O)Nc1ncc(Cc3ccc(C(C)C)cc3)s1)C2` (stereo not given), the inhibition was 18.3%.

For the compound `CCCCc1nn2c(=O)cc(COC(=O)CNC(=O)COc3ccc(C)cc3)nc2s1`, the inhibition is 13%.

On to `Cc1ccccc1-c1nc(CN2CCC(C(=O)NC(C)C)CC2)c(C)o1`, for which the inhibition was 9.36%.

With `CCOc1ccc(NC(=O)c2c(NCc3cccs3)sc3c2CCC(C)C3)cc1` (stereo not given), the inhibition is 12.9%.

Turning to `CCOC(=O)c1ccc(N=C2SC(C(=O)Nc3ccccc3)CC(=O)N2C)cc1` (stereo not given), the inhibition is -13.5%.

As for `CCN(CC)c1ccc(C2C(C(N)=O)=C(C)Nc3nc(SCc4ccccc4Cl)nn32)cc1` (stereo not given), the inhibition was -9.79%.

On to `COc1ccc(C)cc1NS(=O)(=O)c1ccc2oc(=O)c3ncn(C)c3c2c1`, for which the inhibition was 9.29%.

In the case of `Cc1ccc(NC(=O)c2ccc(C)c(S(=O)(=O)N3CCCCCC3)c2)cc1`, the inhibition is -8.64%.

As for `CC(C)N(c1ccccc1)c1ccc(NC(=S)NCCN(C)C)cc1`, the inhibition was active: 82.5%.

Turning to `O=C(NCCSCc1ccccc1)C1CCN(S(=O)(=O)Cc2ccccc2)CC1`, the inhibition was 12.9%.

On to `COc1ccc(CNC(=O)C2(c3cccs3)CCOCC2)cc1`, for which the inhibition was -13.5%.

In the case of `Cc1cccc(NC(=O)Cn2c(SCC(=O)NCc3ccccc3)nc3ccccc32)c1C`, the inhibition is 11.7%.

`O=C(c1cnn(-c2ccc(F)cc2)c1-n1cccc1)N1CCN(c2ccccc2)CC1`: the inhibition is -0.328%.

As for `CCOc1ccc(-c2cn3nc(CC(C)C)sc3n2)cc1`, the inhibition was -1.74%.

For the compound `COc1ccc(NC(=O)Nc2cc(C(=O)NCc3ccc(C)cc3)ccc2N2CCCC2)cc1`, the inhibition came to 2.86%.

For `CCCCN(C)CCCNC(=O)c1cn(CC)c2ccc(S(=O)(=O)N3CCc4ccccc4C3)cc2c1=O`, the inhibition is 9%.

As to `COc1ccccc1CNC(=O)c1cc(S(=O)(=O)N2CCCC(C)C2)cn1C` (stereo not given), the inhibition is -8.05%.

With `CCc1ccc(NC(=O)CC2C(=O)N(c3ccc(F)cc3)C(=O)N2Cc2ccc(F)cc2)cc1` (stereo not given), the inhibition was determined as 4.07%.

Regarding `Cc1ccc2oc(-c3ccc(NC(=O)c4oc5ccc(Cl)cc5c4C)cc3)nc2c1`, the inhibition was -11.8%.

Regarding `Cc1cccc(NC(=S)N(CCCN2CCOCC2)Cc2ccccn2)c1`, the inhibition is active: 39.6%.

Regarding `Cc1ccc(-n2nc(C)c3c(C(F)(F)F)cc(-c4cccnc4)nc32)cc1C`, the inhibition turned out to be 10.5%.

As to `CCN1C(=O)c2ccccc2S(=O)(=O)c2ccc(C(=O)NCc3ccccc3OC)cc21`, the inhibition amounted to 10.3%.

Consider `CC(C)c1ccc(NC(=O)c2cc3c(=O)[nH]c4ccccc4c3n2C)cc1`, for which the inhibition is -1.59%.

Consider `O=C(CSc1cn(CC(=O)N2CCCCC2)c2ccccc12)NCc1ccccc1Cl`, for which the inhibition was determined as 7.4%.

As to `Cc1ccc(-n2nc(C)c3c(C(=O)NCCc4ccc(S(N)(=O)=O)cc4)cc(C)nc32)cc1`, the inhibition worked out at 1.27%.

Turning to `O=C(CN1C(=O)c2cccnc2Sc2ccccc21)Nc1cc(F)ccc1F`, the inhibition was -2.21%.

Turning to `CCC1CN(C(=O)N2CCC(C(=O)NCc3cccc(F)c3)CC2)c2cc(C)ccc2O1` (stereo not given), the inhibition was determined as 11.5%.

For `COc1cc(OC)c2ccc(=O)oc2c1C(CCN1CCN(c2ccccc2)CC1)c1ccc2c(c1)OCO2` (stereo not given), the inhibition was active: 94%.

For `COc1ccc(OC)c(CNC(=O)NCc2noc3ccc(C)cc23)c1`, the inhibition is -4.65%.

On to `CCCOC(=O)c1cccc(NC(=O)COc2ccc([N+](=O)[O-])cc2)c1`, for which the inhibition was active: 33.3%.

Turning to `Cc1cc(Nc2cccc(Cl)c2)nc2ccc(NC(=O)COc3ccc(Cl)cc3)cc12`, the inhibition was -9.57%.

For the compound `CCOc1ccc(NC(=O)CSc2nc3ccsc3c(=O)n2CCC(C)C)cc1`, the inhibition is 15.9%.

As to `Cc1ccc(NC(=O)C2CCN(S(=O)(=O)c3ccc4c(c3)CCCC(=O)N4)CC2)cc1N(C)C`, the inhibition came out at 5.92%.

In the case of `COc1ccc(OC)c(NC(=O)C2CCN(S(=O)(=O)c3ccc4c(c3)CC(C)N4C(C)=O)CC2)c1` (stereo not given), the inhibition is -14.7%.

For the compound `COc1ccc(OC)c(NC(=O)C(C)n2c(=O)c(-c3ccccc3NC(C)=O)nc3ccccc32)c1` (stereo not given), the inhibition worked out at 6.09%.

`O=C(CC1Sc2ccccc2NC1=O)Nc1cccc(C(F)(F)F)c1` (stereo not given): the inhibition is -2.87%.

Consider `COc1ccc(-c2nc(CSCC(=O)NCCC(C)C)c(C)o2)cc1OC`, for which the inhibition was found to be 22.4%.

Take `COc1ccc(N2CC(NC(=O)COc3cccc(C)c3)CC2=O)cc1OC` (stereo not given): the inhibition amounted to 9.53%.

On to `COc1ccccc1NS(=O)(=O)c1cn(C)c(C)n1`, for which the inhibition turned out to be 13.2%.

For the compound `Cc1ccc(C)c(N2CCN(C(=O)Cn3nc(C)c4sc5ccccc5c4c3=O)CC2)c1`, the inhibition amounted to 17.6%.

For the compound `COc1ccccc1N(CC(=O)Nc1ccccc1C(F)(F)F)S(=O)(=O)c1ccc(C)cc1`, the inhibition was 14.1%.

For `CCC(O)c1nc2ccccc2n1Cc1cc(C)ccc1C` (stereo not given), the inhibition stood at 16.3%.

Take `O=C(NCc1cccnc1)c1ccc(-c2ccccc2[N+](=O)[O-])o1`: the inhibition was active: 85.3%.

For the compound `Cc1oc2ccc(O)c(CN3CCCCCC3)c2c1C(=O)Nc1cccc(C(F)(F)F)c1`, the inhibition is 16.1%.

Turning to `CCOC(=O)c1c(NC(C)=O)c2c3c(sc2n1Cc1cc(C)ccc1C)CCCC3`, the inhibition was 9.01%.

On to `CCOc1ccccc1NC(=O)Cn1c(=O)n(Cc2ccco2)c(=O)c2sc3ccccc3c21`, for which the inhibition was -16.9%.
